We go through 40 molecules from the supplement of paper PMC8813932.

Counter-ions that a name gives are not always drawn. The list shows a part of the results. Most values come without repeats; read them as rough.

The subject of the first assay is Ov4Cis. The assay can be described thus: log2 surviving fraction relative to plate median (drug vs vehicle, or drug+dl922-947 vs dl922-947 alone); ovarian cancer lines: OVCAR4 is platinum-sensitive while Ov4Cis resists cisplatin and Ov4Carbo carboplatin; higher = more cell survival. The settings on record: dl922-947 oncolytic adenovirus co-treatment: MOI 10; compound concentration: 10 uM; 192 h.
With `N=C(N)c1ccc(OCCCCCOc2ccc(C(=N)N)cc2)cc1` [Pentamidine], the log2 surviving fraction was -2.11.
Same read-out and setting: in the case of `Cc1cccc(Nc2ccccc2C(=O)O)c1C` [Mefenamic acid] it was 0.115.
Same read-out and setting: then `CCN(CC)CCOC(=O)C1(C2CCCCC2)CCCCC1` [Dicyclomine HCl], with -0.0263; and `O=C(C1CCCCC1)N1CC(=O)N2CCc3ccccc3C2C1` (centres undefined) [Praziquantel (Biltricide)], with -0.00963.

The assay is the same for the next values; noted with them: dl922-947 oncolytic adenovirus co-treatment: none; compound concentration: 10 uM; 192 h.
As for `CC1CNc2c(cccc2S(=O)(=O)N[C@@H](CCCNC(=N)N)C(=O)N2CC[C@@H](C)C[C@@H]2C(=O)O)C1` (some centres undefined) [Argatroban], the log2 surviving fraction worked out at 0.584.
On the same count and under the same terms, in the case of `O=c1c(-c2ccc(O)cc2)coc2cc(O)ccc12` [Daidzein] it was -0.244; in that of `COc1cc2nc(N3CCN(C(=O)C4CCCO4)CC3)nc(N)c2cc1OC` (centres undefined) [Terazosin HCl (Hytrin)], 0.697.
Still for that read-out and setting: in the case of `O=C(O)CCc1nc(-c2ccccc2)c(-c2ccccc2)o1` [Oxaprozin] it was 0.104; in that of `CCC[C@H](NC(=O)[C@@H]1[C@H]2CCC[C@H]2CN1C(=O)[C@@H](NC(=O)[C@@H](NC(=O)c1cnccn1)C1CCCCC1)C(C)(C)C)C(=O)C(=O)NC1CC1` [Telaprevir (VX-950)], -0.968.
The same measure, in the same setting: then `COC(=O)C1=C(C)NC(C)=C(C(=O)OC)C1c1ccccc1[N+](=O)[O-]` [Nifedipine (Adalat)], with 0.493; and `COc1ccc2c(c1)C(=O)N(CCc1ccc(S(=O)(=O)NC(=O)NC3CCCCC3)cc1)C(=O)C2(C)C` [Gliquidone], with -0.0965; and `OC(Cn1cncn1)(Cn1cncn1)c1ccc(F)cc1F` [Fluconazole], with 0.41.
For the molecule `C[C@@H](O)[C@H]1C(=O)N2C(C(=O)O)=C(S[C@@H]3CN[C@H](CNS(N)(=O)=O)C3)[C@H](C)[C@H]12` [Doripenem Hydrate], the log2 surviving fraction turned out to be 0.42.
On the same count and under the same terms, then `CN1[C@@H]2C[C@@H](OC(=O)[C@H](CO)c3ccccc3)C[C@H]1[C@@H]1O[C@@H]12` [Scopolamine hydrobromide], with 0.636; and `CCCCCCOC(=O)NC(=N)c1ccc(NCc2nc3cc(C(=O)N(CCC(=O)OCC)c4ccccn4)ccc3n2C)cc1` [BIBR-1048 (Dabigatran)], with -0.968.
The same measure, in the same setting: then `Clc1ccc(CSC(Cn2ccnc2)c2ccc(Cl)cc2Cl)cc1` (centres undefined) [Sulconazole Nitrate], with -3.02.
On the same count and under the same terms, in the case of `CC(C)(O)c1ccccc1CC[C@@H](SCC1(CC(=O)O)CC1)c1cccc(/C=C/c2ccc3ccc(Cl)cc3n2)c1` [Montelukast Sodium] it was -1.04.
With `CC(C)CN(C[C@@H](O)[C@H](Cc1ccccc1)NC(=O)O[C@H]1CO[C@H]2OCC[C@H]21)S(=O)(=O)c1ccc(N)cc1` [Darunavir Ethanolate (Prezista)], the log2 surviving fraction is -0.157.
Still for that read-out and setting: then `CN1C[C@@H]2C[C@H]1CN2c1cc2c(cc1F)c(=O)c(C(=O)O)cn2C1CC1` [Danofloxacin Mesylate], with -1.6.
In the case of `CC(=O)O[C@H]1C(=O)[C@@]2(C)[C@H]([C@H](OC(=O)c3ccccc3)[C@]3(O)C[C@H](OC(=O)[C@H](O)[C@@H](NC(=O)c4ccccc4)c4ccccc4)C(C)=C1C3(C)C)[C@]1(OC(C)=O)CO[C@@H]1C[C@@H]2O` [Paclitaxel (Taxol)], the log2 surviving fraction was -6.69.
Same read-out and setting: in the case of `CC[C@]1(O)C[C@@H]2CN(CCc3c([nH]c4ccccc34)[C@@](C(=O)OC)(c3cc4c(cc3OC)N(C)[C@H]3[C@@](O)(C(=O)OC)[C@H](OC(C)=O)[C@]5(CC)C=CCN6CC[C@]43[C@@H]65)C2)C1` [Vinblastine] it was -0.0314; in that of `COC(=O)C1=C(C)NC(C)=C(C(=O)OCC(C)C)C1c1ccccc1[N+](=O)[O-]` (centres undefined) [Nisoldipine (Sular)], -1.96; in that of `Nc1c2c(nc3ccccc13)CCCC2` [Tacrine HCl], -1.16.
Same read-out and setting: in the case of `COc1cc(C(C)=O)ccc1OCCCN1CCC(c2noc3cc(F)ccc23)CC1` [Iloperidone (Fanapt)] it was 0.067; in that of `CCOC(=O)c1cncn1[C@H](C)c1ccccc1` [Etomidate], 0.601; in that of `CCCCN(CCCC)CCCOC(=O)c1ccc(N)cc1` [Butacaine], 0.427.
Same read-out and setting: in the case of `CCCCc1ncc(/C=C(\Cc2cccs2)C(=O)O)n1Cc1ccc(C(=O)O)cc1` [Eprosartan Mesylate] it was 0.323; in that of `Cc1ncc([N+](=O)[O-])n1CC(C)O` (centres undefined) [Secnidazole (Flagentyl)], 0.127; in that of `O=c1cc[nH]c(=S)[nH]1` [2-Thiouracil], -1.94.
In the case of `Cc1cc(C#N)cc(C)c1Oc1nc(Nc2ccc(C#N)cc2)nc(N)c1Br` [Etravirine (TMC125)], the log2 surviving fraction was -5.18.
For `CCOC(=O)N1CCC(=C2c3ccc(Cl)cc3CCc3cccnc32)CC1` [Loratadine], the log2 surviving fraction was 0.63.
Still for that read-out and setting: then `Cc1nnc(NS(=O)(=O)c2ccc(N)cc2)s1` [Sulfamethizole (Proklar)], with 0.366.
The same measure, in the same setting: then `CC(C)(C)NC(=O)[C@H]1CC[C@H]2[C@@H]3CC[C@H]4NC(=O)C=C[C@]4(C)[C@H]3CC[C@]12C` [Finasteride], with 0.242; and `CN(C)C(=O)C(CCN1CCC(O)(c2ccc(Cl)cc2)CC1)(c1ccccc1)c1ccccc1` [Loperamide hydrochloride], with -4.89; and `O=C(N[C@H](CO)[C@H](O)c1ccc([N+](=O)[O-])cc1)C(Cl)Cl` [Chloramphenicol (Chloromycetin)], with 0.421.
On the same count and under the same terms, in the case of `CCCCOc1cc(C(=O)NCCN(CC)CC)c2ccccc2n1` [Dibucaine HCL] it was -0.151; in that of `CCCCCCCN(CC)CCCC(O)c1ccc(NS(C)(=O)=O)cc1` (centres undefined) [Ibutilide fumarate], -0.228; in that of `CC(C)C[C@H](NC(=O)[C@H](CCc1ccccc1)NC(=O)CN1CCOCC1)C(=O)N[C@@H](Cc1ccccc1)C(=O)N[C@@H](CC(C)C)C(=O)[C@@]1(C)CO1` [Carfilzomib (PR-171)], -16.2.
`Nc1nc(CC(=O)Nc2ccc(CCNC[C@H](O)c3ccccc3)cc2)cs1` [Mirabegron (YM178)]: the log2 surviving fraction was 0.0325.
Same read-out and setting: then `CN1CCN(C2=Nc3cc(Cl)ccc3Nc3ccccc32)CC1` [Clozapine (Clozaril)], with 0.284; and `N=C(N)c1ccc(OCCCCCOc2ccc(C(=N)N)cc2)cc1` [Pentamidine], with -2.82; and `Cc1cccc(Nc2ccccc2C(=O)O)c1C` [Mefenamic acid], with 0.282.
Same read-out and setting: in the case of `CCN(CC)CCOC(=O)C1(C2CCCCC2)CCCCC1` [Dicyclomine HCl] it was 0.358.
For the molecule `O=C(C1CCCCC1)N1CC(=O)N2CCc3ccccc3C2C1` (centres undefined) [Praziquantel (Biltricide)], the log2 surviving fraction stood at 0.201.
